Experimental data published in article PMC4336329 (PLoS ONE, 2015).
About 2,200 (0.71%) of roughly 310,000 compounds showed an effect of 50% or more. Effects have a minus sign here. The list shows a part of the results.

Each molecule was assayed against human ether-à-go-go-related gene (hERG) potassium channel (human, UniProt Q12809) (assay: primary screen, population patch clamp on CHO cells stably expressing hERG).
human ether-à-go-go-related gene (hERG) potassium channel, sequence (Q12809 whole entry, looked up): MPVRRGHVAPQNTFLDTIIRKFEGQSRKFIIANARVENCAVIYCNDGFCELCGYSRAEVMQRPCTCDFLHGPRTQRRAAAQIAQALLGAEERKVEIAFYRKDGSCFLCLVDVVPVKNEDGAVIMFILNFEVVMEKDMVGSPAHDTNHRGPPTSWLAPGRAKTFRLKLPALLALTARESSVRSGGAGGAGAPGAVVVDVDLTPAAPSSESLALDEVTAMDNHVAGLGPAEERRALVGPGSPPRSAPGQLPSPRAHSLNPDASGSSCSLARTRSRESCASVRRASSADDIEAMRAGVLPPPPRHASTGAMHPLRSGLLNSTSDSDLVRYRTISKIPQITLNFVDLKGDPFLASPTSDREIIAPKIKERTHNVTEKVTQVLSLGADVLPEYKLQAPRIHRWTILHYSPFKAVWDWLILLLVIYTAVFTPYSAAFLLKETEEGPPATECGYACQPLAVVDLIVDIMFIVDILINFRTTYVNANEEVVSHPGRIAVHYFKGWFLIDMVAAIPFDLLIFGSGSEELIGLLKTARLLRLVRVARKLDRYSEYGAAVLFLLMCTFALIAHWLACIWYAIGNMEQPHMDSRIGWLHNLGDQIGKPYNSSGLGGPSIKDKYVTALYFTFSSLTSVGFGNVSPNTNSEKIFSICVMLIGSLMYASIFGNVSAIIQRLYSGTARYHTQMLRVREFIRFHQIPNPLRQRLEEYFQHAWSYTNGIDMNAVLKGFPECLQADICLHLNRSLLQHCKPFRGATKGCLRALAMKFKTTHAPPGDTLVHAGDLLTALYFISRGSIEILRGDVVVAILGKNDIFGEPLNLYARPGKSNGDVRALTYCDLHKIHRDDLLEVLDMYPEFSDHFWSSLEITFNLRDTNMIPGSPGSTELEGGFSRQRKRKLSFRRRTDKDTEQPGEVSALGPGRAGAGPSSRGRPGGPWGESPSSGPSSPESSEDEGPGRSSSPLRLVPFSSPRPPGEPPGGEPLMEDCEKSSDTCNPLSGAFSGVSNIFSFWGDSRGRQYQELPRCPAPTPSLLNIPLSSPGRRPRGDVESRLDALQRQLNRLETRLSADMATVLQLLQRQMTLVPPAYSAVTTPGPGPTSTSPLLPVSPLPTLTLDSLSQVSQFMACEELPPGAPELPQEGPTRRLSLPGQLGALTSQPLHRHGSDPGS

SMILES	hERG current change (%, negative = inhibition) at 1uM
Cc1cc(NC(=O)c2ccccc2)n(C(C)(C)C)n1	14.5%
O=C(c1ccc(N2CCCC2=O)cc1)N1CCN(c2ccccc2)CC1	13.9%
COc1ccc(OCC(=O)OCC(=O)Nc2ccc(S(=O)(=O)N3CCCCC3)cc2)cc1	-0.323%
Cc1cc(OC(=O)c2ccco2)c2c3c(c(=O)oc2c1)CCCC3	12.6%
Cc1ccc(C(=O)COc2cc(C)nc3nncn23)cc1	13.3%
COC(=O)[C@@H](NC(=O)O[C@@H]1C(=O)c2cc(Br)ccc2O[C@H]1c1cccc(OC)c1)C(C)C	7.25%
COc1ccc2oc(=O)c(N3C(=O)c4ccccc4C3=O)cc2c1	27.2%
O=C(OCC(=O)N1CCC(Cc2ccccc2)CC1)c1ccc[nH]c1=O	8.65%
COc1cccc(C2C(=O)N(C3CCCCC3)CC(=O)N2Cc2ccc(F)cc2)c1 (stereo not shown)	-15.7%
CCOc1ccc(-c2ccc(NS(=O)(=O)c3cc([N+](=O)[O-])c(C)c([N+](=O)[O-])c3)cc2)nn1	6.87%
CN(c1ccccc1)c1ccc(/C=N/N2CCOCC2)cc1	11.2%
CC(CC(=O)Nc1cc(C(F)(F)F)ccc1Cl)c1ccccc1 (stereo not shown)	11.6%
COc1ccc(C2CCCN2C(=O)Nc2ccc(F)cc2)cc1OC (stereo not shown)	3.04%
O=c1[nH]c(C(F)(F)F)nc2ccc3ccccc3c12	10.3%
COc1ccc(NC(=O)/C=C/c2cc(Br)ccc2OC)cc1	14.2%
COc1ccc(C(C(=O)NC2CCCC2)N(CCC(C)C)C(=O)CCC(=O)Nc2cc(C)on2)cc1 (stereo not shown)	24.7%
CCOC(=O)C1(Cc2cccc(Cl)c2)CCCN(C(=O)c2c(CC)noc2C)C1 (stereo not shown)	4.83%
O=C(CCC(=O)OCCCC(F)(F)C(F)(F)F)Nc1ccccc1	14%
CCN(CC)C(=O)CSc1nc(N)c(-c2ccccc2)c(=O)[nH]1	12.9%
CS(=O)(=O)N(CC(=O)NCC1CCCO1)c1cc(Cl)ccc1Cl (stereo not shown)	6.18%
Cc1onc(-c2ccccc2)c1C(=O)Nc1nnc(CC(C)(C)C)s1	14.3%
COc1ccc(C(=O)NC(=S)NNC(=O)c2ccc(O)cc2)cc1[N+](=O)[O-]	14.3%

SMILES	hERG current change (%, negative = inhibition) at 1uM
Cc1[nH]n(-c2ccc([N+](=O)[O-])cc2)c(=O)c1C=NCCc1c(C)[nH]c2ccccc12	15.2%
Cc1ccc(NC(=O)C[n+]2cc(-c3ccccc3)n3c2CCC3)cc1.[Cl-]	2.87%
CCOc1cc2c(cc1OCC)C(c1ccc(F)cc1)NCC2 (stereo not shown)	1.51%
CN(CC(=O)Nc1ccccc1Br)C(=O)CN(C)C1CCCCC1	11.2%
CC(O)C1CCC2C3CC[C@H]4CC(O)CCC4(C)C3CC3(OCCO3)C12C (stereo partly shown)	0.154%
O=C(NCCSCc1ccco1)Nc1cccc(Cl)c1	1.49%
CCC(C)[C@H](NC(=O)NC1CCCc2ccccc21)C(=O)OC (stereo partly shown)	12%
NS(=O)(=O)c1ccc(CCNC(=O)CCNS(=O)(=O)c2ccccc2C(F)(F)F)cc1	8.45%
CC12CCC(C(=O)Nc3cccc(Cl)c3)(C(Br)C1=O)C2(C)C (stereo not shown)	7.65%
CC(C)Oc1ccc(CNCCC2(C(C)C)CCOC(C)(C)C2)cc1 (stereo not shown)	-8.86%
COc1ccc(CCNC(=O)CSc2nnc(CNC(=O)c3ccccc3F)o2)cc1OC	12.3%
CCn1c(=O)c2ccccc2n(CC(=O)NC2CCCCC2)c1=O	15.1%
C#CCOCCOCCOCCNc1nc(N2CCN(C(=O)CCCCCCCCCCNC(=O)Cn3cc(CCCCCN)nn3)CC2)nc(N2CCN(C(=O)CCCCCCCCCCNC(=O)[C@@H]([C@H](C)O)n3cc(C)nn3)CC2)n1	7.97%
COc1ccccc1NS(=O)(=O)c1ccc(C)c(C(=O)NCC(c2ccco2)N(C)C)c1 (stereo not shown)	9.87%
C=CCSc1nnc(NC(=O)CCN2C(=O)C3CC=CCC3C2=O)s1 (stereo not shown)	4.55%
O=c1c2ccccc2ncn1Cc1ccc2c(c1)OCO2	14.1%
Cc1ccc(N(C(=O)Cn2nnc(-c3ccccc3F)n2)C(C(=O)NC2CCCC2)c2ccncc2)cc1 (stereo not shown)	8.61%
O=C(c1ccccc1)N(Cc1ccc2c(c1)OCO2)Cc1nc2ccccc2c(=O)[nH]1	5.35%
CCN(CC)CCNC(=O)c1cccc(NC(=O)C(=O)c2cc(Br)ccc2NC(C)=O)c1	-2.69%
Cc1[nH]c(=O)[nH]c(=O)c1S(=O)(=O)N1CCN(c2ccccc2)CC1	16.8%
CCOC(=O)c1c(NC(=O)CSc2nnc(C)c(=O)[nH]2)sc2c1CCC2	2.02%
COc1cc(OC)cc(C(=O)OCC(=O)NCCCc2ccccc2)c1	13.5%

SMILES	hERG current change (%, negative = inhibition) at 1uM
Cc1cc2cc(CNC(=O)c3ccc(S(=O)(=O)N4CCCC4)cc3)ccc2n1C	9.1%
O=C(N/N=C/c1ccc(N2CCCC2)c([N+](=O)[O-])c1)c1cccnc1	4.06%
CC(C)CN(C(=O)CCC(=O)OCC(=O)NCCc1ccccc1)c1c(N)n(CC(C)C)c(=O)[nH]c1=O	-0.265%
COc1ccccc1/C=C(/NC(=O)c1ccccc1)C(=O)NCCN1CCOCC1	13.6%
COC(=O)CN1C(=O)COc2ccc(S(=O)(=O)N3CCCCCC3)cc21	9%
N/C(=N\c1nc(CSc2nnnn2-c2ccccc2)cc(=O)[nH]1)Nc1ccccc1	20.4%
CCOC(=O)N/N=C/C=C/c1ccccc1[N+](=O)[O-]	8.8%
C=CCNc1nc(NCc2ccccc2)nc(OCC)n1	1.14%
CCOc1ccc(S(=O)(=O)N2CCC(C(=O)NCC3CCCO3)CC2)cc1C (stereo not shown)	15.5%
Cn1cc(-c2nnc(-c3ccccc3)o2)c2ccccc21	10.3%
COc1cc(OC)c2c(C)cc(=O)oc2c1C(CCN1CCN(c2ccccc2)CC1)c1ccc2c(c1)OCO2 (stereo not shown)	9.26%
CC1=C(C)CC2C(=O)N(Cc3ccccc3)C(=O)C2C1 (stereo not shown)	4.15%
O=C(Cc1ccccc1)NCc1ccc2c(c1)OCO2	0.915%
O=C(Nc1ccc2ccccc2n1)c1ccccc1	10.4%
COc1ccc(OCC(O)Cn2c(=N)n(CCN3CCOCC3)c3ccccc32)cc1.Cl (stereo not shown)	-10.5%
COc1ccc(Cn2c(SC)nc3ccccc32)cc1[N+](=O)[O-]	17.2%
CCOC(=O)c1c(-c2ccc(C)o2)csc1NC(=S)NC(=O)c1ccc(F)cc1	11.3%
COC(=O)COc1ccc(C2NC(=O)NC(C)=C2C(=O)NCc2ccccc2)cc1OC (stereo not shown)	-3%
O=C(NCc1ccccc1)c1ccc(N2C(=O)C3CCCCC3C2=O)cc1 (stereo not shown)	6.94%
COc1ccc(C(=O)N2CCN(C3CCN(Cc4ccccc4)CC3)CC2)cc1OC	-14.5%
O=C(/C=C/c1ccccc1)NCCSCc1ccccc1Cl	12.6%
Cn1c(=O)c2c(nc(Oc3ccccc3N)n2C)n(C)c1=O	26.6%

SMILES	hERG current change (%, negative = inhibition) at 1uM
Cc1ccc(NC(=S)NCCc2ccc(S(N)(=O)=O)cc2)cc1C	7.85%
COc1ccccc1NC(=O)C1=C(C)NC(=O)NC1c1ccccc1F (stereo not shown)	6.77%
Cc1nc2nc(SCC(=O)NCCCN3CCCC(C)C3)nn2c(C)c1Cc1ccccc1Cl (stereo not shown)	11.1%
N#C/C(=C\c1ccc(OCc2ccccc2)cc1)C(=O)Nc1ccc(C(=O)O)cc1	8.52%
CCOC(=O)C(CC)Sc1ccc2nnc(-c3cccnc3)n2n1 (stereo not shown)	-10.4%
CCOC(=O)N1CCN(C(=O)CCCn2c(=S)[nH]c3ccc(Br)cc3c2=O)CC1	1.98%
N#Cc1cc2c(nc1SCc1ccncc1)CCC2	1.23%
CCC(C)N(C(=O)COC(=O)CCc1c[nH]c2ccccc12)C1CCS(=O)(=O)C1 (stereo not shown)	4.74%
CCCOc1ccc(S(=O)(=O)N2CCCC2)cc1[N+](=O)[O-]	4.2%
N#Cc1ccccc1CSc1nc2ccsc2c(=O)n1Cc1ccccn1	8.27%
CC1CCCCC12NC(=O)N(CC(=O)NC1CCCc3ccccc31)C2=O (stereo not shown)	13.6%
C=CCn1c(N2CCCC2)nc2c1c(=O)n(C)c(=O)n2C	10%
CCCn1c(Nc2cccc(OC)c2)nc2ccccc21	11%
COCCCNc1nc2c(c(=O)[nH]c(=O)n2C)n1CC(O)COc1ccccc1C (stereo not shown)	-4.33%
CC(/C=C\C=C\c1ccccc1)=N\NC(=O)c1cncc(Br)c1	12.1%
CN(C)/C=C1/C=C(c2ccccc2)OC1=O	7.64%
COc1cc(/C=C/c2nc3ccccc3c(=O)[nH]2)ccc1OC(F)F	17.3%
CCCn1c(O)c(/C=C2\C=NN=C2c2ccccc2)sc1=S	8.56%
O=C(CCCc1nc(-c2ccc(Cl)cc2)no1)NC1CCCCC1	18.4%
